# Reference: the supplement of paper PMC8728848
# The list shows a part of the results.
# B1: MIC4-A5 (Toxoplasma gondii), Q9XZH7 (protein)
# chain: SPDFHDEVECVHTGNIGSKAQTIGEVKRASSLSECRARCQAEKECSHYTYNVKSGLCYPKRGKPQFYKYLGDMTGSRTCDTS
# What was measured:
# Experiment in all cases: glycan array binding signal (z-score within array); higher = stronger binding
# Conditions in all cases: glycan notation: IUPAC condensed, linker removed
# [1] = target: Gal(b1-3)GlcNAc(b1-3)Gal(b1-4)[Fuc(a1-3)]GlcNAc(b1-3)Gal(b1-4)Glc
# Method in brief: (§1)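 Arrays were curated from the Consortium for Functional Glycomics database, 3228 in total, and kept only where the protein sequence was available. Binding is expressed as a within-array Z-score. This score was averaged across arrays of the same protein sequence at different concentrations or buffers and across linkers, and negative values can be read as non-binding.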
# [2] = target: Gal(b1-3)GlcNAc(b1-3)Gal(b1-4)[Fuc(a1-3)]GlcNAc(b1-6)[Gal(b1-3)GlcNAc(b1-3)]Gal(b1-4)Glc
# Method in brief: as §1
# [3] = target: Gal(b1-3)GlcNAc(b1-3)[Fuc(a1-3)[Gal(b1-4)]GlcNAc(b1-6)]Gal(b1-4)Glc
# Method in brief: as §1
# [4] = target: Gal(b1-3)GlcNAc(b1-3)[Fuc(a1-3)[Gal(b1-4)]GlcNAc(b1-6)]Gal(b1-4)]GlcNAc(b1-6)[Gal(b1-4)]GlcNAc(b1-3)]Gal(b1-4)Glc
# Method in brief: as §1
# [5] = target: Gal(b1-3)GlcNAc(b1-3)[Gal(b1-4)GlcNAc(b1-6)]Gal(b1-4)Glc
# Method in brief: as §1
# [6] = target: Gal(b1-3)GlcNAc(b1-3)[Gal(b1-4)GlcNAc(b1-6)]Gal(b1-4)GlcNAc(b1-6)[Gal(b1-3)GlcNAc(b1-3)]Gal(b1-4)Glc
# Method in brief: as §1
# [7] = target: Gal(b1-3)[Fuc(a1-4)]GlcNAc
# Method in brief: as §1
# [8] = target: Gal(b1-3)[Fuc(a1-4)]GlcNAc(b1-3)Gal(b1-4)Glc
# Method in brief: as §1
# [9] = target: Gal(b1-3)[Fuc(a1-4)]GlcNAc(b1-3)Gal(b1-4)[Fuc(a1-3)]Glc
# Method in brief: as §1
# [10] = target: Gal(b1-3)[Fuc(a1-4)]GlcNAc(b1-3)Gal(b1-4)[Fuc(a1-3)]GlcNAc(b1-3)Gal(b1-4)Glc
# Method in brief: as §1
# [11] = target: Gal(b1-3)[Fuc(a1-4)]GlcNAc(b1-3)Gal(b1-4)[Fuc(a1-3)]GlcNAc(b1-6)[Gal(b1-3)[Fuc(a1-4)]GlcNAc(b1-3)]Gal(b1-4)Glc
# Method in brief: as §1
# [12] = target: Gal(b1-3)[Fuc(a1-4)]GlcNAc(b1-3)[Fuc(a1-3)[Gal(b1-4)]GlcNAc(b1-6)]Gal(b1-4)Glc
# Method in brief: as §1
# [13] = target: Gal(b1-3)[Neu5Ac(a2-6)]GalNAc(b1-4)Gal(b1-4)Glc
# Method in brief: as §1
# [14] = target: Gal(b1-3)[Neu5Ac(a2-6)]GlcNAc(b1-3)Gal(b1-4)Glc
# Method in brief: as §1
# Gal(b1-4)Glc = target: Gal(b1-4)Glc
# Method in brief: as §1
# Gal(b1-4)GlcNAc = target: Gal(b1-4)GlcNAc
# Method in brief: as §1
# [15] = target: Gal(b1-4)GlcNAc(b1-2)Man(a1-3)[Gal(b1-4)GlcNAc(b1-2)Man(a1-6)]Man(b1-4)GlcNAc(b1-4)GlcNAc
# Method in brief: as §1
# [16] = target: Gal(b1-4)GlcNAc(b1-2)Man(a1-3)[Gal(b1-4)GlcNAc(b1-2)Man(a1-6)]Man(b1-4)GlcNAc(b1-4)[Fuc(a1-6)]GlcNAc
# Method in brief: as §1
# [17] = target: Gal(b1-4)GlcNAc(b1-2)Man(a1-3)[Gal(b1-4)GlcNAc(b1-2)Man(a1-6)][GlcNAc(b1-4)]Man(b1-4)GlcNAc(b1-4)[Fuc(a1-6)]GlcNAc
# Method in brief: as §1
# [18] = target: Gal(b1-4)GlcNAc(b1-2)Man(a1-3)[Man(a1-6)]Man(b1-4)GlcNAc(b1-4)GlcNAc
# Method in brief: as §1
# [19] = target: Gal(b1-4)GlcNAc(b1-2)Man(a1-6)[GlcNAc(b1-2)Man(a1-3)]Man(b1-4)GlcNAc(b1-4)[Fuc(a1-6)]GlcNAc
# Method in brief: as §1
# [20] = target: Gal(b1-4)GlcNAc(b1-2)Man(a1-6)[Man(a1-3)]Man(b1-4)GlcNAc(b1-4)GlcNAc
# Method in brief: as §1
# [21] = target: Gal(b1-4)GlcNAc(b1-2)Man(a1-6)[Man(a1-3)]Man(b1-4)GlcNAc(b1-4)[Fuc(a1-6)]GlcNAc
# Method in brief: as §1
# [22] = target: Gal(b1-4)GlcNAc(b1-2)[Gal(b1-4)GlcNAc(b1-4)]Man(a1-3)[Fuc(a1-3)[Gal(b1-4)]GlcNAc(b1-2)Man(a1-6)]Man(b1-4)GlcNAc(b1-4)GlcNAc
# Method in brief: as §1
# [23] = target: Gal(b1-4)GlcNAc(b1-2)[Gal(b1-4)GlcNAc(b1-4)]Man(a1-3)[Gal(b1-4)GlcNAc(b1-2)Man(a1-6)]Man(b1-4)GlcNAc(b1-4)GlcNAc
# Method in brief: as §1
# [24] = target: Gal(b1-4)GlcNAc(b1-2)[Gal(b1-4)GlcNAc(b1-4)]Man(a1-3)[Gal(b1-4)GlcNAc(b1-2)[Gal(b1-4)GlcNAc(b1-6)]Man(a1-6)]Man(b1-4)GlcNAc(b1-4)GlcNAc
# Method in brief: as §1
# Gal(b1-4)GlcNAc(b1-3)Fuc = target: Gal(b1-4)GlcNAc(b1-3)Fuc
# Method in brief: as §1
# [25] = target: Gal(b1-4)GlcNAc(b1-3)Gal(b1-4)Glc
# Method in brief: as §1
# [26] = target: Gal(b1-4)GlcNAc(b1-3)Gal(b1-4)GlcNAc(b1-3)Gal(b1-4)Glc
# Method in brief: as §1
# [27] = target: Gal(b1-4)GlcNAc(b1-3)[Fuc(a1-3)[Gal(b1-4)]GlcNAc(b1-6)]Gal(b1-4)Glc
# Method in brief: as §1
# [28] = target: Gal(b1-4)GlcNAc(b1-3)[Gal(b1-4)GlcNAc(b1-6)]Gal(b1-4)Glc
# Method in brief: as §1
# [29] = target: Gal(b1-4)GlcNAc(b1-3)[Gal(b1-4)GlcNAc(b1-6)]Gal(b1-4)GlcNAc(b1-3)Gal(b1-4)Glc
# Method in brief: as §1
# [30] = target: Gal(b1-4)GlcNAc(b1-3)[Gal(b1-4)GlcNAc(b1-6)]Gal(b1-4)GlcNAc(b1-3)[Gal(b1-4)GlcNAc(b1-6)]Gal(b1-4)GlcNAc(b1-3)Gal(b1-4)Glc
# Method in brief: as §1
# [31] = target: Gal(b1-4)GlcNAc(b1-3)[Gal(b1-4)GlcNAc(b1-6)]Gal(b1-4)GlcNAc(b1-3)[Gal(b1-4)GlcNAc(b1-6)]Gal(b1-4)GlcNAc(b1-3)[Gal(b1-4)GlcNAc(b1-6)]Gal(b1-4)GlcNAc(b1-3)Gal(b1-4)Glc
# Method in brief: as §1
# [32] = target: Gal(b1-4)GlcNAc(b1-3)[Gal(b1-4)GlcNAc(b1-6)]Gal(b1-4)GlcNAc(b1-3)[Gal(b1-4)GlcNAc(b1-6)]Gal(b1-4)GlcNAc(b1-3)[Gal(b1-4)GlcNAc(b1-6)]Gal(b1-4)GlcNAc(b1-3)[Gal(b1-4)GlcNAc(b1-6)]Gal(b1-4)GlcNAc(b1-3)Gal(b1-4)Glc
# Method in brief: as §1
# Gal(b1-6)GalNAc = target: Gal(b1-6)GalNAc
# Method in brief: as §1
# [33] = target: Gal3S(b1-3)GalNAc(b1-4)Gal3S(b1-4)Glc
# Method in brief: as §1
# [34] = target: Gal3S(b1-3)[Fuc(a1-4)]GlcNAc
# Method in brief: as §1
# [35] = target: Gal3S(b1-3)[Fuc(a1-4)]GlcNAc(b1-3)Gal(b1-4)Glc
# Method in brief: as §1
# Gal3S(b1-4)Glc = target: Gal3S(b1-4)Glc
# Method in brief: as §1
# Gal3S(b1-4)GlcNAc = target: Gal3S(b1-4)GlcNAc
# Method in brief: as §1
# [36] = target: Gal3S(b1-4)GlcNAc(b1-3)Gal
# Method in brief: as §1
# [37] = target: Gal6S(b1-3)[Fuc(a1-4)]GlcNAc(b1-3)Gal(b1-4)Glc
# Method in brief: as §1
# GalNAc(a1-3)Gal(b1-4)Glc = target: GalNAc(a1-3)Gal(b1-4)Glc
# Method in brief: as §1
# GalNAc(a1-3)GalNAc = target: GalNAc(a1-3)GalNAc
# Method in brief: as §1
binder,measurement,setting,value
B1,glycan array binding signal (z-score),[1],0.553
same,glycan array binding signal (z-score),[2],1.67
same,glycan array binding signal (z-score),[3],0.767
same,glycan array binding signal (z-score),[4],0.557
same,glycan array binding signal (z-score),[5],1.51
same,glycan array binding signal (z-score),[6],0.677
same,glycan array binding signal (z-score),[7],1.21
same,glycan array binding signal (z-score),[8],-0.323
same,glycan array binding signal (z-score),[9],-0.322
same,glycan array binding signal (z-score),[10],-0.323
same,glycan array binding signal (z-score),[11],-0.32
same,glycan array binding signal (z-score),[12],-0.318
same,glycan array binding signal (z-score),[13],6.12
same,glycan array binding signal (z-score),[14],3.02
same,glycan array binding signal (z-score),Gal(b1-4)Glc,0.652
same,glycan array binding signal (z-score),Gal(b1-4)GlcNAc,2.85
same,glycan array binding signal (z-score),[15],1.17
same,glycan array binding signal (z-score),[16],1.44
same,glycan array binding signal (z-score),[17],1.3
same,glycan array binding signal (z-score),[18],0.343
same,glycan array binding signal (z-score),[19],0.166
same,glycan array binding signal (z-score),[20],1.67
same,glycan array binding signal (z-score),[21],0.269
same,glycan array binding signal (z-score),[22],0.498
same,glycan array binding signal (z-score),[23],3.22
same,glycan array binding signal (z-score),[24],2.28
same,glycan array binding signal (z-score),Gal(b1-4)GlcNAc(b1-3)Fuc,-0.248
same,glycan array binding signal (z-score),[25],0.717
same,glycan array binding signal (z-score),[26],0.444
same,glycan array binding signal (z-score),[27],1.54
same,glycan array binding signal (z-score),[28],1.51
same,glycan array binding signal (z-score),[29],0.578
same,glycan array binding signal (z-score),[30],0.447
same,glycan array binding signal (z-score),[31],0.059
same,glycan array binding signal (z-score),[32],0.203
same,glycan array binding signal (z-score),Gal(b1-6)GalNAc,1.93
same,glycan array binding signal (z-score),[33],-0.323
same,glycan array binding signal (z-score),[34],-0.322
same,glycan array binding signal (z-score),[35],-0.323
same,glycan array binding signal (z-score),Gal3S(b1-4)Glc,-0.323
same,glycan array binding signal (z-score),Gal3S(b1-4)GlcNAc,-0.321
same,glycan array binding signal (z-score),[36],-0.323
same,glycan array binding signal (z-score),[37],-0.323
same,glycan array binding signal (z-score),GalNAc(a1-3)Gal(b1-4)Glc,-0.323
same,glycan array binding signal (z-score),GalNAc(a1-3)GalNAc,-0.319
